Test results: patent US10913888B2, “Nanotube mediation of degradative chemicals for oil-field application” (MOLECULAR REBAR DESIGN, LLC, priority 2016, dated 2021)

Test: Niacin association with carbon nanotubes by UV-vis absorption of the supernatant

- time after which amount of niacin in solution stabilizes (Example 8, hourly aliquots): 6 h
- niacin associated with each gram of carbon nanotubes (Example 8, no PVOH, 0.231 grams niacin/gram of carbon nanotube in 25 ml water, 20 hours after mixing): 0.0746 g niacin/g CNT
- total amount of niacin absorbed (Example 9, with PVOH, 0.0535 g nanotubes, 0.0139 g niacin): 0.003 grams
SMILES: O=C(O)c1cccnc1 [niacin]
